Test results taken from patent US20190194276A1 (MAYO FOUNDATION FOR MEDICAL EDUCATION AND RESEARCH, published 2019).

Target: T1, endogenous IQGAP1 (human, UniProt P46940 2-1657)
T1 construct: also called cellular IQGAP1
Test: GST pull-down from DU145 whole cell lysate, Western blot

T1 sequence (P46940 2-1657 limits assumed): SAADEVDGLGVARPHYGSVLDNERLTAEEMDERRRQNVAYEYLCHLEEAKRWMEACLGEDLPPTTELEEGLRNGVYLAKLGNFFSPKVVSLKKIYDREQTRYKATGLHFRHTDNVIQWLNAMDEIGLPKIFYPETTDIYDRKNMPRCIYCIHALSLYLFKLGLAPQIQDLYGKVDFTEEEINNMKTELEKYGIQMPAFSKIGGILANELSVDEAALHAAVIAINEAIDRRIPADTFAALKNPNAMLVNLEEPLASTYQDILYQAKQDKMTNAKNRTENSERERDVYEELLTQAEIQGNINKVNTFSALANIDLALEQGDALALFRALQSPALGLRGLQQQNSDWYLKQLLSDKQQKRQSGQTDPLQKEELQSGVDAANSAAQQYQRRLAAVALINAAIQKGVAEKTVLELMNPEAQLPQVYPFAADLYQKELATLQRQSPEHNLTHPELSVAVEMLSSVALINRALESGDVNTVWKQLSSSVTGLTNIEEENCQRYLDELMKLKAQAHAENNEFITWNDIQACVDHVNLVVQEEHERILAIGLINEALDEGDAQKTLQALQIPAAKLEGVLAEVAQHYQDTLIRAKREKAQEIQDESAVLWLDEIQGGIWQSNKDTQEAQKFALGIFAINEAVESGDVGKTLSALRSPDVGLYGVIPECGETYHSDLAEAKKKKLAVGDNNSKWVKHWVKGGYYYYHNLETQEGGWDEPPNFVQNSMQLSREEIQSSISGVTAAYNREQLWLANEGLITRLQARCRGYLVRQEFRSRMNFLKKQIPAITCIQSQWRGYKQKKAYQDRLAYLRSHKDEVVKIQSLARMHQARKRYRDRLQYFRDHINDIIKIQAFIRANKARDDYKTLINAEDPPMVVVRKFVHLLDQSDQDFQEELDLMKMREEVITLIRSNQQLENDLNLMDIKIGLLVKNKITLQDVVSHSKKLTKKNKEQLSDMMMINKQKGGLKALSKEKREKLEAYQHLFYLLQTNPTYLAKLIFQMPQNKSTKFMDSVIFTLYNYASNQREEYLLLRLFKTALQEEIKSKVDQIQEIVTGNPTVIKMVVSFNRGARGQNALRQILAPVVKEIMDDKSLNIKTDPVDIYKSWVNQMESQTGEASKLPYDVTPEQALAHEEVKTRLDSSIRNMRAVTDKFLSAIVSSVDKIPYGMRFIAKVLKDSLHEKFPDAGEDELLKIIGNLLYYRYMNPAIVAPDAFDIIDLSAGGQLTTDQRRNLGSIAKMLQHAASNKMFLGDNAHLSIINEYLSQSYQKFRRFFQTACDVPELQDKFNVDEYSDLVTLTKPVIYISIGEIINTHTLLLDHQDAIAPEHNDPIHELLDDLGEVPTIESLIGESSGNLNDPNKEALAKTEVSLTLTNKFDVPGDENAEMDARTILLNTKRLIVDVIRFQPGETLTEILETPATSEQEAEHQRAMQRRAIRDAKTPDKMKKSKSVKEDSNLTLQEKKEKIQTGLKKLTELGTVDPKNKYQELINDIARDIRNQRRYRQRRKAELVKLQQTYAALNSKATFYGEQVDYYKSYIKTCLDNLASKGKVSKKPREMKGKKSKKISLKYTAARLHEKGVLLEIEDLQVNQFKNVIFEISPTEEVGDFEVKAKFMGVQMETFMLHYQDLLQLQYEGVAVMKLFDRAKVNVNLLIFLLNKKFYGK

binding result: no binding
B1: GST (other)
chain: not shown
notes: Control protein of the GST pull-down; also called glutathione-S-transferase
